According to PubChem BioAssay (NCATS):
The shares of active, inactive and inconclusive entries below differ from those in the screen. For some assays here: Potencies of inconclusive entries are doubtful fits and often do not repeat. Calls of active or inactive are those of the source. Unless noted, the call rests on the fitted dose curve; in most records, active means well fitted curve in the direction sought with a large enough effect; inconclusive means small, poorly fitted or top-dose-only effect, or another doubt; inactive means no such curve, though single readings can be large; an effect the other way counts as inactive or inconclusive.

What was measured:
[1] = Cell Viability - SK-N-SH (AID 435; calls by dose curve;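 further: potency means the concentration at half of the fitted maximal effect; compound exposure lasted 40 h at 37 °C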); details: SK-N-SH neuroblastoma cell viability qHTS
Outline: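 Luminescent ATP signal served as the viability read-out after 40 hours of compound treatment of human neuroblastoma SK-N-SH cells. Concentration-response data, scaled between DMSO and 100 uM tamoxifen, gave AC50 values by standard Hill modeling.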

[2] = Cell Viability - N2a (AID 540); details: N2a mouse neuroblastoma cell viability; activity change, negative = cytotoxicity: at 92.2 µM (top of the series);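 further: cells exposed to compound for 40 h at 37 °C; plate controls were DMSO alone for no effect and tamoxifen control for full effect; nearly all actives have a fitted effect of over 45% in size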
Outline: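 First, 1500 N2a cells per well incubate 5 hr at 37 °C; next, compounds are added and incubated 40 hr at 37 °C; finally CellTiter-Glo is added and luminescence read after 20 min, with AC50 derived by Hill modeling.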

[3] = Cell Viability - H-4-II-E (AID 543); details: H-4-II-E rat hepatoma viability; series mostly up to 92.2 µM; further: potency means the concentration at half of the fitted maximal effect; nearly all actives have a fitted effect of over 35% in size
Outline: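 Here, cytotoxicity is measured in the rat hepatoma line H-4-II-E as loss of intracellular ATP after 40 hr compound treatment, detected by luciferase luminescence.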

[4] = Cell Viability - Renal Proximal Tubule (AID 545); details: renal proximal tubule cells viability, primary cells of rat origin; activity change, negative = cytotoxicity: at 91.7 µM (top of the series); further: nearly all actives have a fitted effect of over 40% in size
Outline: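 Luminescent ATP signal (CellTiter-Glo) served as the viability read-out after 40 hr compound exposure of freshly isolated rat proximal tubule cells at 37 °C. Concentration-dependent ATP loss was fitted with the Hill equation to give AC50.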

[5] = Cellular Toxicity (caspase-3) H-4-II-E (AID 663); details: H-4-II-E rat hepatoma; Potency: caspase-3 activation; caspase-3 activation: at 92.2 µM (top of the series), scaled: DMSO 0%, 100 µM tamoxifen 100%;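 further: cells exposed to compound for 16 hr before readout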
Outline: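 Rat hepatoma H-4-II-E cells (1500/well) plated 5 hr, then exposed to compound titrations for 16 hr at 37 °C. Caspase-Glo 3/7 luminescence read after 20 min at RT; data normalized to DMSO and 100 uM tamoxifen, AC50 from Hill fits.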

[6] = Cell Viability - LYMP2-001 (AID 921); details: LYMP2-001 lymphoblastoid cell viability; series mostly up to 92.2 µM; further: potency means the concentration at half of the fitted maximal effect; nearly all actives have a fitted effect of over 70% in size
Outline: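 Steps: seed 2500 lymphoblastoid cells/well; 5 hr, 37 C; add compound; 24 hr, 37 C; CellTiter-Glo reagent, 30 min room temperature; read luminescence. Concentration-response modeled by Hill equation for AC50.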

[7] = MultiTox-Fluor Cytotoxicity Assay - LYMP1-002 - Live Cells (AID 955); details: LYMP1-002 lymphoblastoid live-cell protease fluorescence viability; series mostly up to 46.1 µM; further: on the % scale 0 is the no-effect control and ±100 the full control effect
Outline: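 Cytotoxicity in the human lymphoblastoid line LYMP1-002 is measured as loss of live-cell protease activity after 16 h treatment in complete culture medium. AC50 is derived from Hill-equation fits of qHTS concentration-response data.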

[8] = Cell Viability - LYMP1-003 - Assay at 40 hr (AID 964); details: LYMP1-003 lymphoblastoid viability; series mostly up to 92.2 µM; further: potency means the concentration at half of the fitted maximal effect; nearly all actives have a fitted effect of over 60% in size
Outline: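 This qHTS cytotoxicity screen treats human lymphoblastoid cells (LYMP1-003) with compounds for 40 hr and quantifies cellular ATP via luciferase luminescence.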

[9] = Cell Viability - LYMP2-004 (AID 966); details: LYMP2-004 lymphoblastoid cell viability, qHTS; series mostly up to 92.2 µM; further: potency means the concentration at half of the fitted maximal effect; nearly all actives have a fitted effect of over 65% in size
Outline: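 Acute toxicity is scored as a concentration-dependent drop in intracellular ATP, quantified by luciferase luminescence, in human lymphoblastoid cells exposed to compound for 24 hr. AC50 derives from Hill-equation modelling.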

[10] = Cell Viability - LYMP2-005 (AID 967); details: LYMP2-005 lymphoblastoid cell viability; series mostly up to 92.2 µM; further: potency means the concentration at half of the fitted maximal effect
Outline: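 Acute cytotoxicity is scored as a concentration-dependent drop in intracellular ATP in human lymphoblastoid LYMP2-005 cells after 24 h compound treatment. ATP is quantified by luciferase luminescence, and AC50 is derived by Hill-equation modelling.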

[11] = Cell Viability - LYMP2-009 (AID 968); details: LYMP2-009 lymphoblastoid cell viability; series mostly up to 92.2 µM; further: potency means the concentration at half of the fitted maximal effect; nearly all actives have a fitted effect of over 55% in size
[12] = Cell Viability - LYMP2-011 (AID 969); details: LYMP2-011 lymphoblastoid cells viability; series mostly up to 92.2 µM; further: potency means the concentration at half of the fitted maximal effect; nearly all actives have a fitted effect of over 60% in size
Outline: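 Acute toxicity is scored as a concentration-dependent drop in intracellular ATP of a human lymphoblastoid line after 24 hr treatment. Values are AC50s modeled with the Hill equation.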

[13] = Cell Viability - LYMP2-013 (AID 970); details: LYMP2-013 lymphoblastoid cells viability; activity change, negative = cytotoxic: at 92.2 µM (top of the series); further: potency means the concentration at half of the fitted maximal effect; nearly all actives have a fitted effect of over 55% in size
Outline: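 Acute toxicity was measured in human lymphoblastoid cells (2500/well) exposed to compound titrations for 24 hr, with ATP luminescence (CellTiter-Glo) as read-out and AC50 fitted by Hill equation.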

[14] = Cell Viability - LYMP2-015 (AID 971); details: LYMP2-015 lymphoblastoid cell viability; series mostly up to 92.2 µM; further: potency means the concentration at half of the fitted maximal effect; nearly all actives have a fitted effect of over 55% in size
Outline: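 Acute toxicity was scored as a concentration-dependent drop in intracellular ATP in lymphoblastoid cells after 24 hr compound exposure in complete medium. Detection used CellTiter-Glo luciferase luminescence.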

[15] = Cell Viability - LYMP2-017 (AID 972); details: LYMP2-017 lymphoblastoid cell viability; series mostly up to 92.2 µM; further: potency means the concentration at half of the fitted maximal effect; nearly all actives have a fitted effect of over 55% in size
Outline: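 Steps: plate 2500 lymphoblastoid cells per well; incubate 5 hr at 37 C; add compound across a concentration series and incubate 24 hr at 37 C; add CellTiter-Glo and read luminescence after 30 min at room temperature; fit Hill curves for AC50.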

[16] = Cell Viability - LYMP2-021 (AID 974); details: LYMP2-021 lymphoblastoid cells viability; series mostly up to 92.2 µM
Outline: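 Concentration-response cytotoxicity in a human lymphoblastoid line: 24 hr treatment at 37 C in complete culture medium, tetraoctylammonium bromide as positive control, luminescent ATP quantitation as viability measure.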

[17] = Cell Viability - LYMP2-023 (AID 975); details: LYMP2-023 lymphoblastoid cell viability; series mostly up to 92.2 µM
Outline: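 Concentration-dependent drop in intracellular ATP measures acute cytotoxicity in a human lymphoblastoid line treated for 24 hours in complete culture medium. AC50 values are taken from Hill-equation fits of qHTS data.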

[18] = Cell Viability - LYMP2-002 (AID 977); details: LYMP2-002 lymphoblastoid cell viability, qHTS; activity change, negative = cytotoxic: at 92.2 µM (top of the series);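 further: compound exposure lasted 24 h at 37 °C; plate controls were DMSO only for no effect and 92 µM tetraoctylammonium bromide for full effect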
Outline: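 Human lymphoblastoid LYMP2-002 cells, 2500 per well, exposed to compounds for 24 h at 37 C in complete medium; viability read as intracellular ATP by CellTiter-Glo luminescence, AC50 from Hill fits.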

[19] = Cell Viability - LYMP2-006 (AID 978); details: LYMP2-006 lymphoblastoid cell viability, qHTS; series mostly up to 92.2 µM; further: potency means the concentration at half of the fitted maximal effect; nearly all actives have a fitted effect of over 60% in size
Outline: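 Cells are seeded at 2500 per well and rested 5 hr at 37 C. Compounds are added across a concentration series for 24 hr at 37 C, after which ATP is quantified by luciferase luminescence.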

[20] = Cell Viability - LYMP2-008 (AID 980); details: LYMP2-008 lymphoblastoid cell viability, qHTS; further: potency means the concentration at half of the fitted maximal effect; nearly all actives have a fitted effect of over 60% in size
Outline: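 Acute cytotoxicity is scored as concentration-dependent loss of cellular ATP in a human lymphoblastoid line after 24 hr treatment at 37 C. ATP is quantified by luciferase luminescence.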
Tags describe the fitted curve by direction and shape.

Cc1ccc(O)c(N)c1
inconclusive: Potency [1] 780 µM [single point] | activity change, negative = cytotoxicity [2] -77% | Potency [3] 79.4 µM [falling, single point] | Potency [8] 2.51 µM [cytotoxic, full curve] | Potency [9] 50.1 µM [cytotoxic, partial curve, poor fit] | Potency [11] 50.1 µM [cytotoxic, partial curve, poor fit] | Potency [12] 79.4 µM [cytotoxic, single point] | Potency [14] 50.1 µM [cytotoxic, partial curve, poor fit] | Potency [16] 50.1 µM [cytotoxic, partial curve, poor fit] | Potency [17] 79.4 µM [cytotoxic, single point] | Potency [19] 79.4 µM [cytotoxic, partial curve, poor fit] | Potency [20] 50.1 µM [cytotoxic, partial curve]
inactive: activity change, negative = cytotoxicity [4] -7.18% | Potency [5] | Potency [7] | Potency [18]
active: Potency [6] 50.1 µM | Potency [10] 50.1 µM | Potency [13] 79.4 µM | Potency [15] 50.1 µM
